Data on one protein can be found in patent US20220280543A1 (UNIVERSITY OF VIRGINIA PATENT FOUNDATION, published 2022).

The data set concerns the molecule itself. Nature of the data set: homo-oligomerization, Tris-glycine native PAGE immunoblot, Alu RNA-treated mouse BMDM. How it is done: FIG. 4. Alu RNA (SEQ ID NO: 86) induced NLRC4 protein oligomerization. Mouse BMDM was treated with Alu RNA (SEQ ID NO: 86; 100 pmol) at the indicated time points. NLRC4 oligomers were detected by Tris-glycine native PAGE. Loading control show by Actin. […] The bands of oligomeric NLRC4 protein were indicated by black arrow.
The activated NLRC4 inflammasome undergoes oligomerization by assembling into high-molecular mass multiprotein complexes. We first investigated in situ assembling of NLRC4 and apoptosis speck (ASC) like protein complexes in response to SINE RNA treatment of BMDMs. Immunofluorescence studies show increased NLRC4 and ASC specks in SINE RNA-treated BMDMs compared to mock-treated cells (FIG. 3A). To assess NLRC4 inflammasome assembly, WT and NLRC4 KO BMDM cells were treated with Alu RNA (SEQ ID NO: 86). Disuccinimidyl suberate (DSS) cross-linked lysates were resolved using denaturing SDS-PAGE to detect ASC oligomers and cell lysates were resolved using native polyacrylamide gel electrophoresis (NATIVE-PAGE) to detect NLRC4 oligomerization. […] NLRC4/ASC oligomerization is essential for the cleavage of pro-caspase-1 into its active form p20 and IL-1β release.
For orientation: Immunoblotting shows a protein as a band on a membrane.

B1: mouse NLR family CARD domain containing 4 (Nlrc4) (receptor)
chain: not shown
notes: Endogenous protein of mouse BMDM / iBMDM
For the protein B1, the binding result is “binds”.
